Source: paper PMC4336329 (PLoS ONE, 2015)
Screen size: about 310,000 compounds; about 14,000 (4.5%) showed an effect of 50% or more. Effects have a minus sign here. This is one part of the list.

Biological target: human ether-à-go-go-related gene (hERG) potassium channel (human, UniProt Q12809)
Test: primary screen, population patch clamp on CHO cells stably expressing hERG
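Further: peak tail current of the secondary pulse compared with the same well before compound.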

human ether-à-go-go-related gene (hERG) potassium channel, sequence (Q12809 whole entry, looked up): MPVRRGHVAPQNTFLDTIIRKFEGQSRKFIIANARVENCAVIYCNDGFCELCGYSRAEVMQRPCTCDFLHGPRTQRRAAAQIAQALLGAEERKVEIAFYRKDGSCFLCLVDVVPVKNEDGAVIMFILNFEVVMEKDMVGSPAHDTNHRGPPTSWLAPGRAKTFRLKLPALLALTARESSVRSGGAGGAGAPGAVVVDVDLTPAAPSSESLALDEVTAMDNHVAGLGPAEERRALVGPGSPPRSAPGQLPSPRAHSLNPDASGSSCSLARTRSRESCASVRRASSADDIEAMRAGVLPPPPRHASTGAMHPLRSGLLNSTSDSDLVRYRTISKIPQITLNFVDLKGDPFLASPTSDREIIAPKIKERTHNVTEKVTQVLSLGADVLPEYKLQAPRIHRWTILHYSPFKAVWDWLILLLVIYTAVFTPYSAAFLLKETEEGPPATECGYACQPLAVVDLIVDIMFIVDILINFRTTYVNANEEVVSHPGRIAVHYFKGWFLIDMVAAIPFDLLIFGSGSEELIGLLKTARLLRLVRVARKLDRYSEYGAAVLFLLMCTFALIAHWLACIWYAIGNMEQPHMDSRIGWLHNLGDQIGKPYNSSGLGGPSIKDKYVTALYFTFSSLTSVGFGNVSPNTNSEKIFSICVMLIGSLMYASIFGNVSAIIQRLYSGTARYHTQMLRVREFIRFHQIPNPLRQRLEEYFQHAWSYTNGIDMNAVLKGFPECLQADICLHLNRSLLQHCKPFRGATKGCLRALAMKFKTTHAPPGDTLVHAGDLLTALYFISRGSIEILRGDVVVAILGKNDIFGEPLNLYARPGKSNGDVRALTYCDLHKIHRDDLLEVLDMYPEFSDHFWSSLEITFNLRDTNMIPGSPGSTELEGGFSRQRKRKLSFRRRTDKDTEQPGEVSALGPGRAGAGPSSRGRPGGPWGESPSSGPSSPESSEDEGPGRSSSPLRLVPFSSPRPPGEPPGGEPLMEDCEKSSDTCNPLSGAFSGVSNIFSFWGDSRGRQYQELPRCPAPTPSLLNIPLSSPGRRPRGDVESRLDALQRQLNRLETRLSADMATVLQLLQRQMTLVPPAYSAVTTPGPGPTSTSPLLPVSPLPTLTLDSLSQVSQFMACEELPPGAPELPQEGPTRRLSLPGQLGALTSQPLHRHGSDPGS

| SMILES | hERG current change (%, negative = inhibition) at 10uM [%] |
| --- | --- |
| Cc1cccc(NC(=O)C2CCN(S(=O)(=O)c3cccs3)CC2)c1 | -10.5 |
| COc1cccc(-c2nn(C)c3sc(C(=O)NCCCN(C)Cc4ccccc4)cc23)c1 | -52.2 |
| O=C(NC(Cc1ccccc1)C(=O)NCCc1ccccn1)c1cccs1 (stereo not drawn) | 6.14 |
| CS(=O)(=O)N(CC(=O)Nc1ccc(S(=O)(=O)N2CCOCC2)cc1)c1ccccc1Cl | -11.7 |
| Cn1nc(C(C)(C)C)cc1C(=O)O | 18.5 |
| Cn1cccc1Cc1nnc(SCC(=O)N2CCCC2)n1CCc1ccccc1 | 0.218 |
| CC1(C)CC(=O)c2ccc(O)cc2O1 | 4.03 |
| COc1ccc(C(=O)NC(Cc2ccc(OC(=O)c3ccc(OC)cc3)cc2)C(=O)O)cc1 (stereo not drawn) | 20.1 |
| CCOC(=O)/C=C/C(=O)OCC(=O)Nc1cccc(Cl)c1Cl | 6.12 |
| COc1ccc(-c2nn(-c3ccccc3)cc2C(=O)NCC2CCCO2)cc1 (stereo not drawn) | -0.557 |
| O=C(Nc1cccc2ccccc12)c1cn(-c2ccccc2)nc1-c1cccs1 | 15.4 |
| C=CCn1c(C)cc(C(=O)CSc2nc(N)cc(N)n2)c1C | 7 |
| O=Cc1c(NCc2ccc(F)cc2)c2ccccc2[nH]c1=O | 2.59 |
| C[C@@H]1C=C(C(=O)NC2CC2)O[C@H](OCc2ccc(CO)cc2)C1 | -10.7 |
| O=C(COc1ccc(S(=O)(=O)NC2CCCCC2)cc1)NCCC1=CCCCC1 | 2.33 |
| O=c1[nH]c(C(Cl)Cl)nc2sc3c(c12)CCN(Cc1ccccc1)C3 | -6.24 |
| CN(CC(=O)Nc1ccc(N2CCOCC2)cc1)C(=O)CCc1ccccc1Cl | -17.8 |
| COc1ccc(OC)c(NC(=O)CSc2ccc(-c3cccnc3)nn2)c1 | -17.6 |
| O=[N+]([O-])c1cccc(N/N=C/c2cc([N+](=O)[O-])ccc2O)c1 | -1.34 |
| O=C(CSc1ccccc1)Nc1nccs1 | -3.78 |
| CCn1c(CCCNC(=O)c2cccs2)nc2ccccc21 | -15 |
| Cc1cc(=O)oc2cc(OCC(=O)OCC(=O)NC3CC3)ccc12 | 16.4 |
| CCS(=O)(=O)N1CCCC(C(=O)NCCCOC(C)C)C1 (stereo not drawn) | 4.87 |

| SMILES | hERG current change (%, negative = inhibition) at 10uM [%] |
| --- | --- |
| COc1ccc(NC(=S)NN2CCOCC2)cc1OC | -15.4 |
| CCCN(C(=O)CSc1nc(C2CC2)n(-c2ccccc2)n1)C1CCS(=O)(=O)C1 (stereo not drawn) | -7.22 |
| O=C(Nc1ccc(OCC(=O)N2CCC(Cc3ccccc3)CC2)cc1)c1ccco1 | -20.6 |
| COCCN(CC(=O)NC1CCCCC1)C(=O)CCCC(=O)Nc1ccccn1 | 10 |
| COc1ccc2c(c1)Cc1sc(NC(C)=O)nc1-2 | 15.4 |
| O=C(/C=C/c1ccccc1)CC(=O)c1ccccc1O | 23.4 |
| COc1cccc(-c2nnc3n2N=C(c2cc(OC)ccc2OC)CS3)c1 | 2.48 |
| CCOc1ccc(NC(=O)c2sc3nc(N4CCOCC4)c4c(c3c2N)CC(C)(C)OC4)cc1 | 20.6 |
| COc1ccccc1CNc1nc2nc3c(c(=O)n2[nH]1)CCC3 | 0.0608 |
| CCCCCCN1CC(C(=O)OCC)C(=O)C1=O (stereo not drawn) | -22.5 |
| CCOC(=O)CN1CC23C=CC(O2)C(C(=O)O)C3C1=O (stereo not drawn) | -6.7 |
| COC(=O)/C=C(\C)NC(=O)c1ccccc1Cl | 11.4 |
| O=C(COC(=O)C1=Cc2ccccc2OC1)NC1CCCC1 | 17.3 |
| O=S1(=O)CC(O)C(N2CCC(c3ccccc3)CC2)C1 (stereo not drawn) | 7.68 |
| N#Cc1cc(Sc2ccccn2)c(Sc2ccccn2)cc1C#N | 5.64 |
| CCN1CCN(c2nc(-c3cccs3)nc3ccccc23)CC1 | -70.8 |
| CCOc1ccc2cc(C#N)c(SCC(=O)NC(C)CC)nc2c1 (stereo not drawn) | 5.6 |
| CCOC(=O)N1CCC(NC(=O)c2cc(C(=O)Nc3ccc(OCC)cc3)ccc2CO)CC1 | 9.27 |
| O=C(COC(=O)c1ccccc1[N+](=O)[O-])c1ccc(C2CCCCC2)cc1 | 3.94 |
| CCOc1ncccc1C(=O)OCC(=O)c1ccc(Cl)s1 | -0.952 |
| CC(=O)c1c(C)[n+]([O-])c2ccc3c(non3O)c12 | 13.6 |
| CC(C)(C)NC(=O)Cn1nc(C(F)(F)F)c2c1CCCC2 | 7.68 |
